Data: the supplement of paper PMC8728848
This is one part of the list.

Assays:
Assay in all cases: glycan array binding signal (z-score within array); higher = stronger binding
Conditions in all cases: glycan notation: IUPAC condensed, linker removed
[1] = target: Neu5Ac(a2-3)Gal(b1-4)GlcNAc(b1-6)[Gal(b1-3)]GalNAc
Method in brief: (§1)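 Glycan array data were curated from 3228 arrays in the Consortium for Functional Glycomics database and kept only where the protein sequence was available. Glycan names were converted to IUPAC-condensed notation, and columns mapping to the same glycan were averaged. The binding signal is a within-array Z-score, averaged across arrays of the same protein sequence at different concentrations or buffers and across linkers. Negative Z-scores can be read as non-binding.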

[2] = target: Neu5Ac(a2-3)Gal(b1-4)GlcNAc(b1-6)[Neu5Ac(a2-3)Gal(b1-3)]GalNAc
Method in brief: as §1

[3] = target: Neu5Ac(a2-3)Gal(b1-4)GlcNAc6S
Method in brief: as §1

[4] = target: Neu5Ac(a2-3)Gal(b1-4)[Fuc(a1-3)]GlcNAc
Method in brief: as §1

[5] = target: Neu5Ac(a2-3)Gal(b1-4)[Fuc(a1-3)]GlcNAc(b1-2)Man
Method in brief: as §1

[6] = target: Neu5Ac(a2-3)Gal(b1-4)[Fuc(a1-3)]GlcNAc(b1-3)Gal
Method in brief: as §1

[7] = target: Neu5Ac(a2-3)Gal(b1-4)[Fuc(a1-3)]GlcNAc(b1-3)Gal(b1-4)GlcNAc
Method in brief: as §1

[8] = target: Neu5Ac(a2-3)Gal(b1-4)[Fuc(a1-3)]GlcNAc(b1-3)Gal(b1-4)[Fuc(a1-3)]GlcNAc(b1-3)Gal(b1-4)[Fuc(a1-3)]GlcNAc
Method in brief: as §1

[9] = target: Neu5Ac(a2-3)Gal(b1-4)[Fuc(a1-3)]GlcNAc(b1-3)GalNAc
Method in brief: as §1

[10] = target: Neu5Ac(a2-3)Gal(b1-4)[Fuc(a1-3)]GlcNAc(b1-6)[Gal(b1-3)]GalNAc
Method in brief: as §1

[11] = target: Neu5Ac(a2-3)Gal(b1-4)[Fuc(a1-3)]GlcNAc(b1-6)[Neu5Ac(a2-3)Gal(b1-3)]GalNAc
Method in brief: as §1

[12] = target: Neu5Ac(a2-3)Gal(b1-4)[Fuc(a1-3)]GlcNAc6S
Method in brief: as §1

[13] = target: Neu5Ac(a2-3)Gal6S(b1-4)GlcNAc
Method in brief: as §1

[14] = target: Neu5Ac(a2-3)Gal6S(b1-4)[Fuc(a1-3)]GlcNAc
Method in brief: as §1

Neu5Ac(a2-3)GalNAc = target: Neu5Ac(a2-3)GalNAc
Method in brief: as §1

[15] = target: Neu5Ac(a2-3)GalNAc(b1-4)GlcNAc
Method in brief: as §1

[16] = target: Neu5Ac(a2-3)[GalNAc(b1-4)]Gal(b1-4)Glc
Method in brief: as §1

[17] = target: Neu5Ac(a2-3)[GalNAc(b1-4)]Gal(b1-4)GlcNAc
Method in brief: as §1

[18] = target: Neu5Ac(a2-3)[GalNAc(b1-4)]Gal(b1-4)GlcNAc(b1-3)GalNAc
Method in brief: as §1

[19] = target: Neu5Ac(a2-3)[Neu5Ac(a2-6)]GalNAc
Method in brief: as §1

Neu5Ac(a2-6)Gal = target: Neu5Ac(a2-6)Gal
Method in brief: as §1

[20] = target: Neu5Ac(a2-6)Gal(b1-3)GlcNAc(b1-3)[Gal(b1-4)GlcNAc(b1-6)]Gal(b1-4)Glc
Method in brief: as §1

Neu5Ac(a2-6)Gal(b1-4)Glc = target: Neu5Ac(a2-6)Gal(b1-4)Glc
Method in brief: as §1

[21] = target: Neu5Ac(a2-6)Gal(b1-4)GlcNAc
Method in brief: as §1

[22] = target: Neu5Ac(a2-6)Gal(b1-4)GlcNAc(b1-2)Man
Method in brief: as §1

[23] = target: Neu5Ac(a2-6)Gal(b1-4)GlcNAc(b1-2)Man(a1-3)Man(b1-4)GlcNAc(b1-4)GlcNAc
Method in brief: as §1

[24] = target: Neu5Ac(a2-6)Gal(b1-4)GlcNAc(b1-2)Man(a1-3)[Gal(b1-4)GlcNAc(b1-2)Man(a1-6)]Man(b1-4)GlcNAc(b1-4)GlcNAc
Method in brief: as §1

[25] = target: Neu5Ac(a2-6)Gal(b1-4)GlcNAc(b1-2)Man(a1-3)[GlcNAc(b1-2)Man(a1-6)]Man(b1-4)GlcNAc(b1-4)GlcNAc
Method in brief: as §1

[26] = target: Neu5Ac(a2-6)Gal(b1-4)GlcNAc(b1-2)Man(a1-3)[GlcNAc(b1-4)][Neu5Ac(a2-6)Gal(b1-4)GlcNAc(b1-2)Man(a1-6)]Man(b1-4)GlcNAc(b1-4)GlcNAc
Method in brief: as §1

[27] = target: Neu5Ac(a2-6)Gal(b1-4)GlcNAc(b1-2)Man(a1-3)[Man(a1-6)]Man(b1-4)GlcNAc(b1-4)GlcNAc
Method in brief: as §1

B1: Pbx2 (Cryptococcus neoformans) (protein)
chain: AVSPLPSSTELVFYSQKRRRRRICSTATGSLSTPDPTRMTSDPYKRVGMRFSSVPRLLITFLSLLLLVSAAPPCVRFADYDSINQMFIDGGPGTKVLLCPNRLYRLSGPIIFTAADQEIATYGYPTGSERAVLRVEGRNTATAIQGDCRRCARVSVKNLVVDGNRKKLGRMRDFQLATGLVVLGGNEGQSIQNSWIKNPRGFTAIHIREGDKLQCSGARVEKNEIGPVGEEYDPEKDGDDPEMSPLGRPLADGVSIACRDSFIRDNTFRDNTDAAIVVYCSPGTLIHANHIFAQSLSAMAGILMVDSTPFNGDYTGTVVRSNIIDAVSRTIRVGIGIGPTVWSDDTETILTGGSVIGNGLKGRYMGYGIAAAGLKQWTIKDNWDEAKHEGRKSARCFDEPVNPDPIGLLYNRPTMEDCTVQSGFADHDFQYLVCIDGLYDKTNPPKHDPAPLAHDPSPTNAQEDNTVQQDGGDSKSKSIEQPREASDIEAEPSVEKMFSTGSEMMDDVLEHSHQRMHEVIDHLSRRIDILGAASAGKGSGDSKISEVLDPAMSSHLEKLQRKIEHLEFSLRSQIETAIQLRSAIQGWDQEMALVTDWEYDILLDVRHKLELSSYPHDQPLDPRLMRGQSYLNNEAVLVDDHSHPSLEGENLRAMSDRARLNANEEA
[1]
  glycan array binding signal (z-score): -0.617
[2]
  glycan array binding signal (z-score): -0.105
[3]
  glycan array binding signal (z-score): -0.42
[4]
  glycan array binding signal (z-score): -0.624
[5]
  glycan array binding signal (z-score): -0.325
[6]
  glycan array binding signal (z-score): -0.186
[7]
  glycan array binding signal (z-score): -0.463
[8]
  glycan array binding signal (z-score): -0.615
[9]
  glycan array binding signal (z-score): 0.907
[10]
  glycan array binding signal (z-score): 0.276
[11]
  glycan array binding signal (z-score): -0.415
[12]
  glycan array binding signal (z-score): -0.51
[13]
  glycan array binding signal (z-score): -0.26
[14]
  glycan array binding signal (z-score): -0.573
Neu5Ac(a2-3)GalNAc
  glycan array binding signal (z-score): -0.628
[15]
  glycan array binding signal (z-score): -0.573
[16]
  glycan array binding signal (z-score): -0.239
[17]
  glycan array binding signal (z-score): -0.522
[18]
  glycan array binding signal (z-score): -0.206
[19]
  glycan array binding signal (z-score): -0.486
Neu5Ac(a2-6)Gal
  glycan array binding signal (z-score): -0.58
[20]
  glycan array binding signal (z-score): -0.115
Neu5Ac(a2-6)Gal(b1-4)Glc
  glycan array binding signal (z-score): -0.528
[21]
  glycan array binding signal (z-score): -0.507
[22]
  glycan array binding signal (z-score): 0.729
[23]
  glycan array binding signal (z-score): -0.574
[24]
  glycan array binding signal (z-score): -0.362
[25]
  glycan array binding signal (z-score): -0.129
[26]
  glycan array binding signal (z-score): 0.289
[27]
  glycan array binding signal (z-score): -0.389
